Assay results taken from patent US20260022143A1, “Cyclic Peptide Inhibitors of IL-23” (JANSSEN PHARMACEUTICA NV, priority 2022, published 2026).
Part of at least one peptide drawing is inferred or uncertain, most often the ends. At least one compound was matched to its structure with a doubt left. Starred links: 1 amine or outer side, 2 acyl side, 3 side chain; linkers in the order of their positions; H or OH if unused. Positions of bridges follow the written chain, without caps; N, C: chain ends. Non-standard residues stand in square brackets, D forms with d. Residues, ends and D or L forms follow the SMILES beside them. Groups on a side chain read outwards from the residue. *: point of attachment. X56 = CCCCCCCCCCCC(=O)NCCOCCOCC(=O)NCCOCCOCC(=O)NCC[N+](C)(C)CC(=O)*; Me3N+(CH2)2O(CH2)2O(CH2)2CO = C[N+](C)(C)CCOCCOCCC(=O)*; PEG12 = NCCOCCOCCOCCOCCOCCOCCOCCOCCOCCOCCOCCOCCC(=O)O; CH2CH2OCH2CH2OCH2CH2NMe3+ = C[N+](C)(C)CCOCCOCC*; Trp(7-Me) = Cc1cccc2c(C[C@H](N)C(=O)O)c[nH]c12; d(hLys(Me3)) = C[N+](C)(C)CCCCC[C@@H](N)C(=O)O; PEG9 = NCCOCCOCCOCCOCCOCCOCCOCCOCCOCCC(=O)O; X9 = COCCOCCOCC[N+](C)(C)CCc1cn(CC*)nn1; γGlu = O=C(O)[C@H](CCC(=O)[*:2])N[*:1]; 2Nal = N[C@@H](Cc1ccc2ccccc2c1)C(=O)O; AEF = NCCOc1ccc(C[C@H](N)C(=O)O)cc1; X19 = C[N+](C)(C)C[C@@H](CC(=O)O)N*; 3Pal = N[C@@H](Cc1cccnc1)C(=O)O; Myristoyl = CCCCCCCCCCCCCC(=O)*; Lys(Me) = CNCCCC[C@H](N)C(=O)O; NMeK = CN[C@@H](CCCCN)C(=O)O; Pen = CC(C)(S)[C@H](N)C(=O)O; Suc = O=C(CCC(=O)[*:2])[*:1]; Thp = NC1(C(=O)O)CCOCC1; X3 = C[N+](C)(C)CCCCC*; AEEA = NCCOCCOCC(=O)O; Sar = CNCC(=O)O

Target: T1, IL-23R (Homo sapiens, UniProt Q5VWK5)
T1 construct: host or cells: HEK293
T1 sequence (Q5VWK5 24-629): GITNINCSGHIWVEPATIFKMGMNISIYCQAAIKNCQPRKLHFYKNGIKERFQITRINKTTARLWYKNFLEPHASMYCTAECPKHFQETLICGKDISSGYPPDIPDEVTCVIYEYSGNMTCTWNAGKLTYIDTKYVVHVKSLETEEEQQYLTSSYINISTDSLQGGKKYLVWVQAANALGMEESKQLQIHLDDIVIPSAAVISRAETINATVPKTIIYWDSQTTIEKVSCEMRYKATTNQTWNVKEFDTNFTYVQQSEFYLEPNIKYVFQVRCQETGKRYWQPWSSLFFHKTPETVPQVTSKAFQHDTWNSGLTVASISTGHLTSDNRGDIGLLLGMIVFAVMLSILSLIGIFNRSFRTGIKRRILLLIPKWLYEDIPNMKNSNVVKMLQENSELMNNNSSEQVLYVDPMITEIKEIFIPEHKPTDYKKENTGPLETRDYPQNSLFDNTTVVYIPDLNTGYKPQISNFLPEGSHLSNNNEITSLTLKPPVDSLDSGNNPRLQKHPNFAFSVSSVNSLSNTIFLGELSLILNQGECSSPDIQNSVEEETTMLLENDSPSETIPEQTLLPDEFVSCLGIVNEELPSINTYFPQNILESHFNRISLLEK
Experiment: IL23R Reporter Assay
Type: cell-based
Settings: HEK293 cells containing IL-23R, IL-12RP1 and STAT-inducible firefly luciferase reporter; 10 ng/mL IL-23 (EC90); 5 h at 37° C.

| Structure (SMILES) | IC50 [nM] |
| --- | --- |
| CCCCCCCCCCCCCC(=O)N[C@@H](CCC(=O)NCCOCCOCC(=O)NCCOCCOCC(=O)NCCCC[C@@H]1NC(=O)[C@H](Cc2c[nH]c3c(C)cccc23)NC(=O)[C@H]([C@@H](C)O)NC(=O)[C@H](CC(=O)N(C)C)NC(=O)[C@@H](NC(=O)CCOCCOCC[N+](C)(C)C)C(C)(C)SSC(C)(C)[C@@H](C(=O)N[C@@H](Cc2ccc(OCCCCC[N+](C)(C)C)cc2)C(=O)N[C@@H](Cc2ccc3ccccc3c2)C(=O)NC2(C(=O)N[C@@H](CCCCN(C)C(C)=O)C(=O)N[C@@H](CC(N)=O)C(=O)N[C@@H](Cc3cccnc3)C(=O)N(C)CC(=O)N(C)C)CCOCC2)NC1=O)C(=O)O [compound 399, cPEG3aCO-Pen(3)-N(N(Me)2)-T-7MeW-K(PEG2PEG2gEC14)-Pen(3)-TMAPF-2Nal-THP-K(NMeAc)-N-3Pya-Sar-CON(Me)2] ({Me3N+(CH2)2O(CH2)2O(CH2)2CO}-[Pen]D(NMe2)T[Trp(7-Me)]K([AEEA-AEEA-γGlu-Myristoyl])[Pen]Y(X3)[2Nal][Thp][Lys(Me)](Ac)N[3Pal][Sar]-NMe2; disulfide 1-6) | 15 |
| CC(=O)NCCCC[C@@H]1NC(=O)[C@H](Cc2c[nH]c3c(C)cccc23)NC(=O)[C@H]([C@@H](C)O)NC(=O)[C@H](CC(N)=O)NC(=O)[C@@H](NC(=O)[C@@H](CCCCNC(=O)CCC(=O)N[C@H](CC(=O)O)C[N+](C)(C)C)NC(C)=O)C(C)(C)SSC(C)(C)[C@@H](C(=O)N[C@@H](Cc2ccc(OCCN)cc2)C(=O)N[C@@H](Cc2ccc3ccccc3c2)C(=O)NC2(C(=O)N[C@@H](CCCCNC(C)=O)C(=O)N[C@@H](CC(N)=O)C(=O)N[C@@H](Cc3cccnc3)C(=O)N(C)CC(N)=O)CCOCC2)NC1=O [compound 107] (Ac-[dK]([Suc-X19])[Pen]NT[Trp(7-Me)]K(Ac)[Pen][AEF][2Nal][Thp]K(Ac)N[3Pal][Sar]-NH2; disulfide 2-7) | 4.5 |
| CC(=O)NCCCC[C@@H]1NC(=O)[C@H](Cc2c[nH]c3c(C)cccc23)NC(=O)[C@H]([C@@H](C)O)NC(=O)[C@H](CC(N)=O)NC(=O)[C@@H](NC(=O)[C@@H](CCCNC(=N)N)NC(=O)CCOCCOCCOCCOCCOCCOCCOCCOCCOCCOCCOCCOCCNC(C)=O)C(C)(C)SSC(C)(C)[C@@H](C(=O)N[C@@H](Cc2ccc(OCCN)cc2)C(=O)N[C@@H](Cc2ccc3ccccc3c2)C(=O)NC2(C(=O)N[C@@H](CCC(=O)O)C(=O)N[C@@H](CC(N)=O)C(=O)N[C@@H](Cc3cccnc3)C(=O)N(C)CC(N)=O)CCOCC2)NC1=O [compound 38] (Ac-[PEG12][dR][Pen]NT[Trp(7-Me)]K(Ac)[Pen][AEF][2Nal][Thp]EN[3Pal][Sar]-NH2; disulfide 3-8) | 5.4 |
| CCCCCCCCCCCCCC(=O)N[C@@H](CCC(=O)NCCOCCOCC(=O)NCCOCCOCC(=O)NCCCC[C@@H]1NC(=O)[C@@H](NC(=O)[C@@H](CCCCC[N+](C)(C)C)NC(=O)COCCOCCNC(=O)COCCOCCNC(=O)CC[C@H](NC(=O)CCCCCCCCCCCCC)C(=O)O)C(C)(C)SSC(C)(C)[C@@H](C(=O)N[C@@H](Cc2ccc(OCCCCC[N+](C)(C)C)cc2)C(=O)N[C@@H](Cc2ccc3ccccc3c2)C(=O)NC2(C(=O)N[C@@H](CCCCN(C)C(C)=O)C(=O)N[C@@H](CC(N)=O)C(=O)N[C@@H](Cc3cccnc3)C(=O)N(C)CC(=O)N(C)C)CCOCC2)NC(=O)[C@H](CCCCN(C)C(C)=O)NC(=O)[C@H](Cc2c[nH]c3c(C)cccc23)NC(=O)[C@H]([C@@H](C)O)NC1=O)C(=O)O [compound 374, C14gEPEG2PEG2CO-hk(Me)3-Pen(3)-K(PEG2PEG2gEC14)-T-7MeW-K(NMeAc)-Pen(3)-TMAPF-2Nal-THP-K(NMeAc)-N-3Pya-Sar-CON(Me)2] ({Myristoyl-γGlu-AEEA-AEEA}-[d(hLys(Me3))][Pen]K([AEEA-AEEA-γGlu-Myristoyl])T[Trp(7-Me)][Lys(Me)](Ac)[Pen]Y(X3)[2Nal][Thp][Lys(Me)](Ac)N[3Pal][Sar]-NMe2; disulfide 2-7) | 140 |
| CCCCCCCCCCCCCC(=O)N[C@@H](CCC(=O)NCCOCCOCC(=O)NCCOCCOCC(=O)NCCCC[C@@H]1NC(=O)[C@@H](NC(=O)[C@@H](CCCCNC(=O)COCCOCCNC(=O)COCCOCCNC(=O)CC[C@H](NC(=O)CCCCCCCCCCCCC)C(=O)O)NC(=O)CCOCCOCC[N+](C)(C)C)C(C)(C)SSC(C)(C)[C@@H](C(=O)N[C@@H](Cc2ccc(OCCCCC[N+](C)(C)C)cc2)C(=O)N[C@@H](Cc2ccc3ccccc3c2)C(=O)NC2(C(=O)N[C@@H](CCCCN(C)C(C)=O)C(=O)N[C@@H](CC(N)=O)C(=O)N[C@@H](Cc3cccnc3)C(=O)N(C)CC(=O)N(C)C)CCOCC2)NC(=O)[C@H](CCCCN(C)C(C)=O)NC(=O)[C@H](Cc2c[nH]c3c(C)cccc23)NC(=O)[C@H]([C@@H](C)O)NC1=O)C(=O)O [compound 381, cPEG3aCO-k(PEG2PEG2gEC14)-Pen(3)-K(PEG2PEG2gEC14)-T-7MeW-K(NMeAc)-Pen(3)-TMAPF-2Nal-THP-K(NMeAc)-N-3Pya-Sar-CON(Me)2] ({Me3N+(CH2)2O(CH2)2O(CH2)2CO}-[dK]([AEEA-AEEA-γGlu-Myristoyl])[Pen]K([AEEA-AEEA-γGlu-Myristoyl])T[Trp(7-Me)][Lys(Me)](Ac)[Pen]Y(X3)[2Nal][Thp][Lys(Me)](Ac)N[3Pal][Sar]-NMe2; disulfide 2-7) | 79 |
| CC(=O)NCCCC[C@@H]1NC(=O)[C@H](Cc2c[nH]c3c(C)cccc23)NC(=O)[C@H]([C@@H](C)O)NC(=O)[C@H](CC(N)=O)NC(=O)[C@@H](NC(=O)[C@@H](CCCNC(=N)N)NC(=O)CCOCCOCCOCCOCCOCCOCCOCCOCCOCCNC(C)=O)C(C)(C)SSC(C)(C)[C@@H](C(=O)N[C@@H](Cc2ccc(OCCN)cc2)C(=O)N[C@@H](Cc2ccc3ccccc3c2)C(=O)NC2(C(=O)N[C@@H](CCC(=O)O)C(=O)N[C@@H](CC(N)=O)C(=O)N[C@@H](Cc3cccnc3)C(=O)N(C)CC(N)=O)CCOCC2)NC1=O [compound 43] (Ac-[PEG9][dR][Pen]NT[Trp(7-Me)]K(Ac)[Pen][AEF][2Nal][Thp]EN[3Pal][Sar]-NH2; disulfide 3-8) | 6.8 |
| CCCCCCCCCCCC(=O)NCCOCCOCC(=O)NCCOCCOCC(=O)NCC[N+](C)(C)CC(=O)NCCCC[C@@H](C(N)=O)N(C)C(=O)[C@H](Cc1cccnc1)NC(=O)[C@H](CC(N)=O)NC(=O)[C@H](CCCCN(C)C(C)=O)NC(=O)C1(NC(=O)[C@H](Cc2ccc3ccccc3c2)NC(=O)[C@H](Cc2ccc(OCCCCC[N+](C)(C)C)cc2)NC(=O)[C@H]2NC(=O)[C@H](CCCCNC(C)=O)NC(=O)[C@H](Cc3c[nH]c4c(C)cccc34)NC(=O)[C@H]([C@@H](C)O)NC(=O)[C@H](CC(=O)N(C)C)NC(=O)[C@@H](NC(=O)CCOCCOCC[N+](C)(C)C)C(C)(C)SSC2(C)C)CCOCC1 [compound 407, cPEG3aCO-Pen(3)-N(N(Me)2)-T-7MeW-K(Ac)-Pen(3)-TMAPF-2Nal-THP-K(NMeac)-N-3Pya-NMeK(SP6PEG2PEG2C12)-CONH2] ({Me3N+(CH2)2O(CH2)2O(CH2)2CO}-[Pen]D(NMe2)T[Trp(7-Me)]K(Ac)[Pen]Y(X3)[2Nal][Thp][Lys(Me)](Ac)N[3Pal][NMeK](X56)-NH2; disulfide 1-6) | 5.9 |
| CC(=O)NCCCC[C@@H]1NC(=O)[C@H](Cc2c[nH]c3c(C)cccc23)NC(=O)[C@H]([C@@H](C)O)NC(=O)[C@H](CC(N)=O)NC(=O)[C@@H](NC(C)=O)C(C)(C)SSC(C)(C)[C@@H](C(=O)N[C@@H](Cc2ccc(OCCOCCOCC[N+](C)(C)C)cc2)C(=O)N[C@@H](Cc2ccc3ccccc3c2)C(=O)NC2(C(=O)N[C@@H](CCCCNC(C)=O)C(=O)N[C@@H](CC(N)=O)C(=O)N[C@@H](Cc3cccnc3)C(=O)N(C)CC(N)=O)CCOCC2)NC1=O [compound 194] (Ac-[Pen]NT[Trp(7-Me)]K(Ac)[Pen]Y(CH2CH2OCH2CH2OCH2CH2NMe3+)[2Nal][Thp]K(Ac)N[3Pal][Sar]-NH2; disulfide 1-6) | 3.5 |
| CC(=O)N[C@@H]1C(=O)N[C@@H](CC(=O)N(C)C)C(=O)N[C@@H]([C@@H](C)O)C(=O)N[C@@H](Cc2c[nH]c3c(C)cccc23)C(=O)N[C@@H](CCCCN(C)C(C)=O)C(=O)N[C@H](C(=O)N[C@@H](Cc2ccc(OCCOCCOCC[N+](C)(C)C)cc2)C(=O)N[C@@H](Cc2ccc3ccccc3c2)C(=O)NC2(C(=O)N[C@@H](CCCCN(C)C(=O)CCOCCOCC[N+](C)(C)C)C(=O)N[C@@H](CC(N)=O)C(=O)N[C@@H](Cc3cccnc3)C(=O)N(C)CC(=O)N(C)C)CCOCC2)C(C)(C)SSC1(C)C [compound 218, MeCO-Pen(3)-N(N(Me)2)-T-7MeW-K(NMeAc)-Pen(3)-APEG3F-2Nal-THP-K(NMePEG3a)-N-3Pya-Sar-CON(Me)2] (Ac-[Pen]D(NMe2)T[Trp(7-Me)][Lys(Me)](Ac)[Pen]Y(CH2CH2OCH2CH2OCH2CH2NMe3+)[2Nal][Thp][Lys(Me)](Me3N+(CH2)2O(CH2)2O(CH2)2CO)N[3Pal][Sar]-NMe2; disulfide 1-6) | 3.8 |
| COCCOCCOCC[N+](C)(C)CCc1cn(CCOc2ccc(C[C@H](NC(=O)[C@H]3NC(=O)[C@H](CCCCNC(C)=O)NC(=O)[C@H](Cc4c[nH]c5c(C)cccc45)NC(=O)[C@H]([C@@H](C)O)NC(=O)[C@H](CC(N)=O)NC(=O)[C@@H](NC(C)=O)C(C)(C)SSC3(C)C)C(=O)N[C@@H](Cc3ccc4ccccc4c3)C(=O)NC3(C(=O)N[C@@H](CCCCNC(C)=O)C(=O)N[C@@H](CC(N)=O)C(=O)N[C@@H](Cc4cccnc4)C(=O)N(C)CC(N)=O)CCOCC3)cc2)nn1 [compound 260] (Ac-[Pen]NT[Trp(7-Me)]K(Ac)[Pen]Y(X9)[2Nal][Thp]K(Ac)N[3Pal][Sar]-NH2; disulfide 1-6) | 5.4 |
